Test results reported in PubChem BioAssay AID2675 (National Center for Advancing Translational Sciences (NCATS), 2010).
The campaign covered roughly 280,000 compounds. About 100 (0.036%) were called active. The inconclusive results got no clear call from the source; some entries with a clear call stand among them for comparison. The call rests on the fitted dose curve; in most records, active means well fitted inhibition curve with a large enough effect in the signal ratio, with a control signal flat (not every such curve was filed as active); inconclusive means small, poorly fitted or top-dose-only effect, or effect the other way, or a change in a side signal; inactive means no such curve, though single readings can be large or run the other way; the % refers to the signal ratio. A potency beside an inconclusive call is a rough fit, not a confirmed value. A note “side channel” means that the fit belongs to a control or component signal, not to the main read-out.

biological target: Muscleblind-like protein 1 (Homo sapiens) (UniProt Q9NR56); experiment: qHTS Assay for Inhibitors of MBNL1-poly(CUG) RNA binding; details: TR-FRET MBNL1-His/biotin-(CUG)12 binding, 665/545 ratio; activity change, negative = inhibition: at 57.5 µM (top of the series)
Method in brief: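 His-tagged MBNL1 binding to biotinylated (CUG)12 RNA was measured by TR-FRET using terbium anti-His antibody (0.055 ng/ul final) and streptavidin-XL665 (5 nM final). Compounds were titrated 92 nM to 58 uM; 60 min at room temperature.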
On the % scale 0 is the no-effect control and ±100 the full control effect; potency means the concentration at half of the fitted maximal effect; tags describe the fitted curve by direction and shape or compound fluorescence and quenching.

UniProt Q9NR56, sequence (Q9NR56 whole entry, looked up): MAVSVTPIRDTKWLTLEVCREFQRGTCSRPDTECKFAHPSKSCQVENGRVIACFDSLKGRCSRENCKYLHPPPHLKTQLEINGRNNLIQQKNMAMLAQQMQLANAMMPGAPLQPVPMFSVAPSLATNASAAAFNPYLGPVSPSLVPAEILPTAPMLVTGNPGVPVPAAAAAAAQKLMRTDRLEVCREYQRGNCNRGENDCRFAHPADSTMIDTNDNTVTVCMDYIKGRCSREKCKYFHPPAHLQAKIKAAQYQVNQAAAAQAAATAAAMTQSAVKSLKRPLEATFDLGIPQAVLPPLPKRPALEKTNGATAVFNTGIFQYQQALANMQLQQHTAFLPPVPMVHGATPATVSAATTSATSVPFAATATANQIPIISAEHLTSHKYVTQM

Compound	Potency	activity change, negative = inhibition
COc1cccc(C(=O)NCc2ccc3[nH]c(C)cc3c2)c1	inconclusive: 39.8 µM [quencher, side channel, single point]	
CN1CCN(/N=C/c2ccc(-c3ccc([N+](=O)[O-])cc3Cl)o2)CC1	inconclusive: 2.24 µM [quencher, side channel, full curve]	
COc1cc(/C(C)=N/Nc2ccc(C(=O)O)cc2)cc(OC)c1OC	inconclusive: 39.8 µM [quencher, side channel, single point]	
CCCCn1c(=O)n(C)c(=O)c2c(C(F)(F)F)cc(-c3ccncc3)nc21	inconclusive: 39.8 µM [fluorescent, side channel, single point]	
Cc1ccc(NS(=O)(=O)c2ccc3c(c2)n(C)c(=O)n3C)cc1C		inactive: -13.1%
C=CCOC(=O)C(=O)/C=C/c1c(C)n(C)n(-c2ccccc2)c1=O	inconclusive: 25.1 µM [quencher, side channel, single point]	
O=c1[nH]ncc(N2CCN(Cc3ccccc3)CC2)c1Cl	inconclusive: 8.91 µM [quencher, side channel, partial curve]	
O=S(=O)(Nc1cccc(Br)c1)c1cccc2nsnc12	inconclusive: 0.447 µM [quencher, side channel, full curve]	
COc1cccc2c(=O)c3ccoc3n(C)c12		inactive: -2.09%
Cc1ccc(S(=O)(=O)Nc2cccc3ncccc23)s1		inactive: 16.2%
O=[N+]([O-])c1cccc(-c2ccc(CN3CCCCC3)o2)c1	inconclusive: 17.8 µM [quencher, side channel, partial curve]	
Cc1cc(N2CCOCC2)c2c(N)c(Br)cc(C)c2n1	inconclusive: 20 µM [quencher, side channel, partial curve]	
S=c1[nH]nc(-c2ccc(Cl)cc2)n1-c1ccc2c(c1)OCCO2		inactive: 16%
CN(C)C(=O)NC(Nc1cccc([N+](=O)[O-])c1)C(Cl)(Cl)Cl (stereo not drawn)	inconclusive: 31.6 µM [quencher, side channel, single point]	
O=C1C2CCCN2C(c2ccc(F)cc2)N1c1ccc(Cl)cc1 (stereo not drawn)		inactive: -5.45%
O=C(NCCn1ccc2ccccc21)c1cccc([N+](=O)[O-])c1	inconclusive: 25.1 µM [quencher, side channel, partial curve]	
CCn1nc(NS(=O)(=O)c2ccc([N+](=O)[O-])cc2)c2cc3ccccc3nc21	inconclusive: 22.4 µM [quencher, side channel, single point]	
CNC(=S)N/N=C/c1c(C)cccc1Cl		inactive: -9.36%
